Data from PMC4336329 (PLoS ONE, 2015).
Among all 310,000 compounds or so, about 14,000 (4.5%) showed an effect of 50% or more. The effect is printed as a negative number. Some of the results follow.

biological target: human ether-à-go-go-related gene (hERG) potassium channel (human, UniProt Q12809); assay: primary screen, population patch clamp on CHO cells stably expressing hERG
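Also: peak tail current of the secondary pulse compared with the same well before compound.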

human ether-à-go-go-related gene (hERG) potassium channel, sequence (Q12809 whole entry, looked up): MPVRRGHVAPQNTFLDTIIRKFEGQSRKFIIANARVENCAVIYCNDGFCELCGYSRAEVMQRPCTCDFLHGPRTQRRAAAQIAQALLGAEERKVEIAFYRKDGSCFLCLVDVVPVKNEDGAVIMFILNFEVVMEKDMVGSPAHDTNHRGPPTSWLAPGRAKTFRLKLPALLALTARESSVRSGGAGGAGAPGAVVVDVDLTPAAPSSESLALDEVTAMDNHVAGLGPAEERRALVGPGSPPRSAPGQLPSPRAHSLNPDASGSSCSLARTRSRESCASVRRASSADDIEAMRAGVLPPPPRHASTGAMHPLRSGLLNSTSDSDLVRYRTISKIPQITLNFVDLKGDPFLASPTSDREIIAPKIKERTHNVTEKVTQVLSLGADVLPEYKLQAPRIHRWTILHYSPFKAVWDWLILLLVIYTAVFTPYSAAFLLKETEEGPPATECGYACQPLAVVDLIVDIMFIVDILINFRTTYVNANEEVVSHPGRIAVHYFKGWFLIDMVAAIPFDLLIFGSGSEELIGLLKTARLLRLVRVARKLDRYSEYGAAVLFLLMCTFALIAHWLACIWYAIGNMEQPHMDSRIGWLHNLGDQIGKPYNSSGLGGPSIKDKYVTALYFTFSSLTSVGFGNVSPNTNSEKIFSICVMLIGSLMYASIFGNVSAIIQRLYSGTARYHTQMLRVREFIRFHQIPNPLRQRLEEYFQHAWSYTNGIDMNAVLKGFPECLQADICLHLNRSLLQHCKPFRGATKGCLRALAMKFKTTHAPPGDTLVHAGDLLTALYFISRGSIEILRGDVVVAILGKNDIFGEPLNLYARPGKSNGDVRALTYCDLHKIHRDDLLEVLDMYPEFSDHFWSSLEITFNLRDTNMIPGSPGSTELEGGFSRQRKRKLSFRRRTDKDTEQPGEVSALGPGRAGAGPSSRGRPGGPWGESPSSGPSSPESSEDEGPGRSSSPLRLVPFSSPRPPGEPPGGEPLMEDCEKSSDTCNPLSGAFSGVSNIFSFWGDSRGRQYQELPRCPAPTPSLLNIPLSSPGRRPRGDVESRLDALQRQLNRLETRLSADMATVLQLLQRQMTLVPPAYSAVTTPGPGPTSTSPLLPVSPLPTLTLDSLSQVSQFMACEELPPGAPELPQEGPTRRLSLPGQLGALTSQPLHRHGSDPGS

| SMILES | hERG current change (%, negative = inhibition) at 10uM [%] |
| --- | --- |
| CCCCN(C(=O)COC(=O)CSc1ccc([N+](=O)[O-])cc1)c1c(N)n(CCC)c(=O)[nH]c1=O | 15.3 |
| Cc1ccccc1C(=O)Nc1ccc(N2CCCC2)cc1.Cl | 4.61 |
| CCCCNC(=S)Nc1ccc(SC(F)F)cc1 | -8.47 |
| COc1cccc(-c2nc(CS(=O)CC(=O)NC3CC3)c(C)o2)c1 (centres unmarked) | -2.33 |
| Cc1cc(C)cc(N(CC(=O)N2CCCCCC2)S(C)(=O)=O)c1 | 6.91 |
| Cc1ccc(C(=O)NCCONC(=O)c2ccc(C)cc2)cc1 | 8.13 |
| COc1ccc(/C=N/NC(=O)CCN2CCN(c3ccccc3)CC2)c(OC)c1OC | -3.73 |
| COc1ccc(CCNC(=O)CC2Nc3ccccc3NC2=O)cc1OC (centres unmarked) | 1.39 |
| CCOC(=O)c1[nH]c(C)c(C(=O)NC2CCN(C(=O)OCC)CC2)c1C | 0.66 |
| CC(NC(=O)c1c(O)c2ccccc2[nH]c1=O)c1ccccc1 (centres unmarked) | 23.9 |
| COc1ccc(OC)c(-c2c(=O)n(OCc3ccccc3Br)c3ccccc3[n+]2[O-])c1 | 11.5 |
| CCc1nc(CN(C)C(=O)C2CCC(=O)N(CCc3cccc(F)c3)C2)no1 (centres unmarked) | -20.4 |
| COc1ccc(C(=O)N/N=C/c2ccc(OC(=O)c3ccccc3)cc2)cc1 | 6.29 |
| O=C(c1cc(-c2ccccc2Cl)on1)N1CCCC1 | 2.97 |
| COc1cccc(C2CC(c3ccccc3)=NN2S(=O)(=O)c2ccccc2)c1OC (centres unmarked) | 4.09 |
| CCOC(=O)C(NC(=O)NCc1ccc(F)cc1)(OCC)C(F)(F)F (centres unmarked) | 2.3 |
| O=C(c1ccc2c(c1)OCO2)N1CCC2(CC1)OCCO2 | -10.6 |
| CCN(CC(=O)Nc1ccc2c(c1)OCCO2)C(=O)C1CC(=O)N(c2ccc(OC)cc2OC)C1 (centres unmarked) | -3.69 |
| O=C(c1ccc(-c2ccccc2)cc1)C1CCCN(C(=O)Cn2cncn2)C1 (centres unmarked) | -2.68 |
| O=C(CN1C(=O)NC2(CCOc3ccccc32)C1=O)Nc1ccc2c(c1)OCCO2 (centres unmarked) | 4.47 |
| CCNC(=S)N1CCN(c2nc(-c3cccc(OC)c3)cs2)CC1 | -1.85 |
| CS(=O)(=O)N1CCN(C(=O)c2ccc(-c3ccccc3)cc2)CC1 | -1.92 |

| SMILES | hERG current change (%, negative = inhibition) at 10uM [%] |
| --- | --- |
| Cc1ccc2c(c1)-c1nc3ccccc3cc1C2=NC1CCCCC1 | 21.8 |
| O=C(N/N=C/c1cccnc1)c1ccc([N+](=O)[O-])cc1 | -7.74 |
| CCc1ccc(CN2CCC(n3nccc3NC(=O)c3ccc4c(c3)OCO4)CC2)cc1 | -72 |
| CCOc1cc(C(=O)NC)cc(Br)c1OC | -2.54 |
| O=C(CCN1C(=O)/C(=C/c2ccc3c(c2)OCO3)SC1=S)NNC(=O)c1cccnc1 | 21.4 |
| C=CCCCCCCCCC(=O)Nc1c[nH]c(=O)[nH]c1=O | -0.489 |
| Cc1ccc(C(=O)CCC(=O)OCc2nnc(-c3ccccc3)o2)cc1 | -37.8 |
| C=CCc1ccc(OCCCNCc2ccccc2)c(OC)c1.O=C(O)C(=O)O | -57.4 |
| COc1cccc(OC)c1C(=O)Nc1ccccc1N1CCCCC1 | -17.4 |
| Oc1ccc(Cl)cc1CNCc1ccc(Cl)cc1 | -3.68 |
| CCCCn1c(N)c(N(CCOC)C(=O)c2cccc(OCc3ccccc3)c2)c(=O)[nH]c1=O | 7.53 |
| Cc1ccc(NC(=O)c2cc(=O)c3ccccc3o2)c(C)c1 | -4.43 |
| Cl.Clc1ccc(CNCC2CCCO2)c(Cl)c1 (centres unmarked) | -2.74 |
| COc1ccc(N(CC(=O)NCCSc2ccccc2)S(=O)(=O)c2ccccc2)cc1 | -18.4 |
| Cc1ccc(S(=O)(=O)N(CC(=O)N/N=C/c2ccccc2C(=O)O)c2cc(Cl)cc(Cl)c2)cc1 | 8.58 |
| Cc1ccc(C(=O)Nc2ccn(C)n2)cc1 | 11.2 |
| Cc1cccnc1NC(=O)c1cccc(S(=O)(=O)N2CCN(c3ccccc3)CC2)c1 | -27 |
| C=CCNC(=S)N1CCN(C2CCCCC2)CC1 | -30.2 |
| CC(NC(=O)C(=O)N1CCCCC1)C(c1cccs1)N1CCN(c2ccccc2)CC1 (centres unmarked) | -8.83 |
| C#CCNC(=O)C1=C[C@@H](c2ccc(C#C)cc2)C[C@@H](OCc2ccc(CO)cc2)O1 | -2.03 |
| c1ccc(CSc2nnc(-c3cccs3)n2Cc2ccco2)cc1 | -46.8 |
| CCC(=O)Nc1c(C)nn(-c2ccc(C)c(C)c2)c1C | -4.15 |
